The experiment deals with T1, E. coli RNase P holoenzyme (M1 P RNA + rnpA protein) (UniProt P0A7Y8).
T1 sequence: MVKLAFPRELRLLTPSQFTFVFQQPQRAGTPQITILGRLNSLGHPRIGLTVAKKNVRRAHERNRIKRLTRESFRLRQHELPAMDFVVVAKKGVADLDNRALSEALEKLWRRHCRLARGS
Briefly: relative kcat/Km (krel) vs genomic leader AAAGAU (relative (reference leader = 1)); higher = faster RNase P cleavage. As to the method: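 HTS-Kin: a pool of ptRNA-Met (21C construct) with all 4096 combinations of 5' leader nucleotides N(-6) to N(-1) was processed in vitro by E. coli RNase P (P RNA + rnpA/C5 protein) under multiple-turnover conditions at 37 C, pH 8, 17.5 mM MgCl2. Residual substrate was Illumina-sequenced at several fractions reacted, and relative kcat/Km (krel) was computed by internal competition kinetics, calibrated to the genomic leader (AAAGAU = 1). The listed hexamer is the varied N(-6)..N(-1) leader (DNA letters), and it sits between a fixed 5' stem-loop flank (GCAUGCACGAAAGUGCGUGCUAUGAA) and the mature tRNA-Met starting GGCUACGUAGCUCAGUUGG. Two technical replicates are averaged.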

Setting [1] is: fraction of substrate reacted: ~9-10% (9.79% repeat 1, 9.1% repeat 2).
The mark [2] stands for this setting: fraction of substrate reacted: ~13-16% (15.68% repeat 1, 13.17% repeat 2).
The mark [3] stands for this setting: fraction of substrate reacted: ~26-29% (28.66% repeat 1, 26.4% repeat 2).

Experimental findings from the supplement of paper PMC9433436 are described below.

± gives the standard deviation of the averaged measurements. Whole data set: some 4,100 sequences, median “relative kcat/Km (krel) vs genomic leader AAAGAU” near 1.7, cut for the highest 2% near 6.5. The list shows a part of the results, in another mix than the full data.

On to AGTTCA, for which the “relative kcat/Km” value runs as follows: under setting [1], 2.22 ± 0.21; under setting [2], 2.82 ± 0.86; under setting [3], 4.24 ± 1.9.
For the sequence CGCTGG, the “relative kcat/Km” value under setting [1] was 0.49 ± 0.25.
Consider AGGCTA, for which the “relative kcat/Km” value under setting [1] worked out at 1.03 ± 0.18, the “relative kcat/Km” value under setting [2] came out at 0.94 ± 0.074 and the “relative kcat/Km” value under setting [3] amounted to 0.958 ± 0.43.
As for CGAGTC, the “relative kcat/Km” value by setting is: under setting [1], 0.979 ± 0.076; under setting [2], 0.341 ± 0.15; under setting [3], 0.942 ± 0.19.
Regarding GGTCGC, the “relative kcat/Km” value under setting [1] was 1.81 ± 0.88, the “relative kcat/Km” value under setting [2] came out at 2.0828 ± 0.002 and the “relative kcat/Km” value under setting [3] came out at 3.37 ± 1.1.
As for TTACGA, the “relative kcat/Km” value by setting is: under setting [1], 2.09 ± 0.19; under setting [2], 3.12 ± 0.7; under setting [3], 4.55 ± 1.8.
In the same order, the values of GCCCCT are 2.4 ± 0.74, 2.1 ± 0.63 and 3.54 ± 1.2.
As to ATTTTG, under setting [3], the “relative kcat/Km” value was determined as 0.929 ± 0.33.
For CAATTT, the “relative kcat/Km” value was 2.09 ± 0.91 under setting [1], 2.52 ± 0.44 under setting [2] and 3.35 ± 1.1 under setting [3].
Take TGCTTC: the “relative kcat/Km” value worked out at 2.79 ± 0.96 under setting [1], 2.83 ± 0.76 under setting [2] and 3.73 ± 1.2 under setting [3].
Turning to ACGGCC, the “relative kcat/Km” value came out at 0.927 ± 0.59 under setting [1], 0.652 ± 0.11 under setting [2] and 0.509 ± 0.061 under setting [3].
In the same order, the values of CAATCC are 2.1 ± 1.4, 2.09 ± 0.56 and 2.17 ± 0.12.
In the case of CGTGAG, the “relative kcat/Km” value under setting [3] came out at 0.73 ± 0.48.
On to GGAGAA, for which the “relative kcat/Km” value under setting [1] stood at 0.871 ± 0.17, the “relative kcat/Km” value under setting [2] amounted to 1.33 ± 0.072 and the “relative kcat/Km” value under setting [3] is 2.05 ± 0.28.
As to CACCCT, the “relative kcat/Km” value reads like this: under setting [1], 2.05 ± 0.84; under setting [2], 2.01 ± 0.14; under setting [3], 3.13 ± 0.71.
Take GCTACG: the “relative kcat/Km” value by setting is: under setting [1], 1.24 ± 0.4; under setting [3], 1.37 ± 0.71.
Consider ACCATA, for which the “relative kcat/Km” value under setting [1] came out at 2.8 ± 1.8, the “relative kcat/Km” value under setting [2] turned out to be 2.2 ± 0.51 and the “relative kcat/Km” value under setting [3] was 3.64 ± 0.82.
As for TCAACG, under setting [2], the “relative kcat/Km” value was 0.657 ± 0.31.
As to GCGGAT, the “relative kcat/Km” value under setting [3] stood at 1.1 ± 0.55.
As to GGCAAG, the “relative kcat/Km” value is 1.55 ± 0.4 under setting [2] and 2.65 ± 0.24 under setting [3].
As for GTACGG, the “relative kcat/Km” value under setting [3] stood at 0.833 ± 0.17.
GGACTC: the “relative kcat/Km” value under setting [1] came out at 1.48 ± 0.25, the “relative kcat/Km” value under setting [2] came out at 1.36 ± 0.13 and the “relative kcat/Km” value under setting [3] came to 1.47 ± 0.4.
In the case of GAGAGA, the “relative kcat/Km” value under setting [1] was found to be 2.01 ± 0.67, the “relative kcat/Km” value under setting [2] was determined as 2.43 ± 0.81 and the “relative kcat/Km” value under setting [3] amounted to 2.73 ± 0.94.
Turning to GTAGGT, the “relative kcat/Km” value under setting [3] is 2 ± 0.94.
Still for that read-out and setting: the figure for AACGGA is 1.36 ± 0.76.
TCACAG: the “relative kcat/Km” value is, setting by setting: under setting [1], 1.02 ± 0.62; under setting [2], 0.504 ± 0.44; under setting [3], 1.92 ± 0.045.
As for GGTGAA, the “relative kcat/Km” value was found to be 1.14 ± 0.78 under setting [1], 1.13 ± 0.16 under setting [2] and 1.4 ± 0.08 under setting [3].
The like results for GCCAAC were, in that order, 1.34 ± 0.25, 1.28 ± 1.1 and 3.94 ± 1.
As for GATCGG, the “relative kcat/Km” value under setting [1] came to 0.215 ± 0.12.
With TAACAC, the “relative kcat/Km” value reads like this: under setting [1], 3.03 ± 1.2; under setting [2], 3.51 ± 0.075; under setting [3], 4.77 ± 1.9.
TAATCA: the “relative kcat/Km” value under setting [1] came to 2.23 ± 1.3, the “relative kcat/Km” value under setting [2] was 1.61 ± 0.08 and the “relative kcat/Km” value under setting [3] is 2.53 ± 0.76.
As to TGGGCG, the “relative kcat/Km” value under setting [3] was 0.478 ± 0.11.
For the sequence ACAGAA, the “relative kcat/Km” value runs as follows: under setting [1], 1.81 ± 1.7; under setting [3], 2.3 ± 0.59.
In the case of ACTGAT, the “relative kcat/Km” value runs as follows: under setting [1], 1.17 ± 0.42; under setting [2], 1.11 ± 0.03; under setting [3], 1.29 ± 0.43.
In the same order, the values of TTTGAA are 2.9 ± 1.1, 3.37 ± 0.8 and 4.46 ± 1.2.
Turning to TCACGG, the “relative kcat/Km” value came out at 0.543 ± 0.47 under setting [1] and 0.429 ± 0.19 under setting [3].
